Several values for one entry are separate records, joined by “and”; a condition that tells them apart may be missing. Equal entries are not always repeated. In all, about 420,000 compounds went through this assay and about 64,000 (15%) were called active. This list was built around the results that the source calls inconclusive (neither active nor inactive); the mix of calls is not that of the screen. Calls come from the whole dose curve; as a rule, active = well fitted inhibition curve with a large enough effect; inconclusive = small, poorly fitted or top-dose-only effect; inactive = flat fitted curve, though single readings scatter. Potencies beside an inconclusive call are fits to weak or partial responses and may not hold up.
Assay: qHTS for Inhibitors of human tyrosyl-DNA phosphodiesterase 1 (TDP1): qHTS in cells in absence of CPT; note: nearly all actives have a fitted effect of over 55% in size
Details: DT40 Tdp1-/- hTDP1 cells, no CPT, ATP luminescence, 48 h; activity change, negative = growth inhibition: at 46.2 µM (top of the series) unless noted
Method in brief: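 No-CPT arm: Tdp1-/-;hTDP1 DT40 cells (400/well) plus compounds, incubated ≥48 hr at 37 °C. Readout CellTiter-Glo luminescence.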
% is set by controls: 0 for no effect and ±100 for the full control effect; potency is the fitted concentration of half-maximal effect; tags give direction and shape of the fitted curve.

| Structure (SMILES) | Potency | activity change, negative = growth inhibition |
| --- | --- | --- |
| CSc1ccc(C(=O)C2CCCN(Cc3cc4ccccc4[nH]3)C2)cc1 (centres undefined) | inconclusive: 29.1 µM [inhibitor, single point] | – |
| CCC(=O)N1N=C(c2c(O)n(C)c(=O)n(C)c2=O)CC1c1ccccc1 (centres undefined) | active: 4.11 µM | – |
| O=c1c2ccccc2nc(/C=C/c2ccc(O)cc2)n1-c1ccccc1O | inconclusive: 29.1 µM [inhibitor, single point] | – |
| CSCCC(c1nnnn1C(C)(C)C)N1CCC(n2c(=O)[nH]c3ccccc32)CC1 (centres undefined) | inconclusive: 18.4 µM [inhibitor, single point] | – |
| CCCCn1c(O)c(C(CC)=NCCCN(C)C)c(=O)[nH]c1=O | – | inconclusive: -36.5% [inhibitor] |
| Cc1cccn2c(=O)c3c(nc12)N1CCCCCC1C1(C3)C(=O)N(C)C(=O)N(C)C1=O (centres undefined) | inconclusive: 20.6 µM [inhibitor, single point] | – |
| CCOC(=O)c1c(C)[nH]c(C)c1S(=O)(=O)N1CCC(C(=O)N2CCN(c3cccc(Cl)c3)CC2)CC1 | inconclusive: 8.2 µM [inhibitor, partial curve] | – |
| CC1([N+](=O)[O-])COP(=O)(Nc2ccc(Cl)cc2)OC1 (centres undefined) | inconclusive: 5.8 µM [inhibitor, full curve, poor fit] | – |
| CCN(CC)CCOc1ccccc1C(=O)CCc1ccccc1 | inconclusive: 23.7 µM [inhibitor, single point] | – |
| Fc1ccc2c(c1)nnn2C1CCN(Cc2nnnn2CCc2ccccc2)CC1 | inconclusive: 25.9 µM [inhibitor, single point] | – |
| C[C@]12CC[C@H]3[C@@H](C[C@H](F)C4=CC(=O)CC[C@@]43C)[C@@H]1CC[C@@H]2O | inconclusive: 25.9 µM [inhibitor, single point] | – |
| CNCCCN1c2ccccc2CCc2ccccc21 | active: 25.9 µM | – |
| C=CCn1c(O)c(C(CC)=Nc2cc(OC)ccc2OC)c(=O)[nH]c1=O | inconclusive: 23.1 µM [inhibitor, single point] | – |
| CCNC(=O)C1CCCN(Cc2cc(C(F)(F)F)ccc2Cl)CC1 (centres undefined) | inconclusive: 29.1 µM [inhibitor, single point] | – |
| O=c1c2ccccc2nc(/C=C/c2cccc3ccccc23)n1-c1ccccc1Cl | active: 10.3 µM | – |
| NP(N)(=O)NC(=O)c1ccc(F)cc1 | inconclusive: 0.106 µM [inhibitor, full curve, poor fit] | – |
| CN1CC=C(/C=C/c2ccc(-c3ccccc3)cc2)CC1 | active: 11.6 µM | – |
| O=C(C[C@@H]1NCCC[C@H]1O)Cn1cnc2cc(Br)c(Cl)cc2c1=O | inactive | – |
| CCOP(=O)(OCC)C(NC(=O)c1ccccc1)=C(Cl)Cl | inactive | – |
| COc1ccc2c(c1)CCc1c(C(=O)Nc3c(C)nn(Cc4ccccc4C)c3C)noc1-2 | active: 10.3 µM | – |
| COc1ccc(C(=O)CCNc2ccc(F)cc2)cc1 | inconclusive: 10.3 µM [inhibitor, partial curve] | – |
| Cc1ccc(-c2cc(-c3ccccc3)cc(-c3ccccc3)[n+]2-c2ccc(C(=O)O)cc2)cc1 | inactive | – |
| COc1cc(OC)c(OC)cc1CN1CCN(C(=O)COc2ccc3ccccc3c2)CC1 | active: 25.9 µM | – |

| Structure (SMILES) | Potency | activity change, negative = growth inhibition |
| --- | --- | --- |
| O=C(Nc1cccc2ccccc12)c1nn(C23CC4CC(CC(C4)C2)C3)cc1Br | active: 16.4 µM | – |
| CC(C)c1ccc(-n2c(O)c(/C=N/NC(=O)c3ccncc3)c(=O)[nH]c2=O)cc1 | inconclusive: 25.9 µM [inhibitor, single point] | – |
| CC[n+]1c(-c2ccccc2)c2cc(N)ccc2c2ccc(N)cc21 | active: 266 nM [middle of 4 runs] | – |
| COc1cc(OC)c(OC)cc1/C=C1\C(=O)NC(=O)N(Cc2ccccc2)C1=O | inactive | – |
| CCC(=O)c1cn(Cc2ccc(C#N)cc2)c2ccccc12 | inconclusive: 20.6 µM [inhibitor, single point] | – |
| CC(N)C(=O)OC(C)(C)Cc1ccc(Cl)cc1 (centres undefined) | inconclusive: 11.9 µM [inhibitor, partial curve, poor fit] and inconclusive: 29.1 µM [inhibitor, single point] | – |
| c1ccc(-c2ccc(-c3n(-c4ccccn4)c4ccccc4[n+]3-c3ccccn3)cc2)cc1 | active: 8.2 µM | – |
| Oc1ccc(O)c2c1C1(Cl)C(Cl)=C(Cl)C2(Cl)C1(Cl)Cl | active: 16.4 µM | – |
| CCN(CCCl)c1cc(CN(C)C)cc(NC(=O)c2ccc(C(=O)Nc3cc(CN(C)C)cc(N(CC)CCCl)c3)cc2)c1 | active: 0.184 µM | – |
| COc1ccc2[nH]cc(C3=CCNCC3)c2c1 | inconclusive: 5.96 µM [inhibitor, full curve] and inconclusive: 13 µM [inhibitor, partial curve, poor fit] | – |
| CCOP(=O)(Cc1ccc(C#N)o1)OCC | inactive | – |
| OCC(CBr)(CBr)CBr | inconclusive: 6.51 µM [inhibitor, single point] | – |
| COc1ccc(C=C2C(=O)N(C)C(=O)N(C)C2=O)cc1CSc1ccccn1 | inconclusive: 29.1 µM [inhibitor, single point] | – |
| N#Cc1ncc(N=Cc2ccc(N(CCCl)CCCl)cc2)s1 | active: 11.6 µM | – |
| CC(C)c1ccc(N2C(=O)NC(=O)/C(=C\c3cnc(-c4ccccc4)nc3)C2=O)cc1 | inconclusive: 29.1 µM [inhibitor, single point] | – |
| C[C@]12CCC3C(CC[C@H]4CC(=O)CC[C@]34C)C1CCC2=O (some centres undefined) | inconclusive: 23.1 µM [inhibitor, single point] | – |
| CCCCC1C(=O)NC(=O)N(C2CCCCC2)C1=O (centres undefined) | – | inconclusive: -30.7% [inhibitor] |
| COc1ccc(C(=O)O)cc1OC | inactive | – |
| CCCN(CCC)C(=O)C(CCC(=O)OCCCN1CCN(CCOC(=O)Cc2c(C)n(C(=O)c3ccc(Cl)cc3)c3ccc(OC)cc23)CC1)NC(=O)c1ccccc1 (centres undefined) | active: 10.6 µM | – |
| CC(c1ccccc1F)n1cc(C(=O)Nc2ccc3nc[nH]c3c2)nn1 (centres undefined) | inactive | – |
| CC(NCC#Cc1ccccc1)C(O)c1ccccc1 (centres undefined) | – | inconclusive: -34.4% [inhibitor] |
| CC(=O)O[C@@H]1CC[C@]2(C)C3CC[C@]4(C)C(=O)[C@H](O)CC4C3[C@@H](OC(C)=O)C[C@H]2C1 (some centres undefined) | inconclusive: 13 µM [inhibitor, partial curve] | – |
| Clc1cccc(SC2CCNCC2)n1 | inconclusive: 15 µM [inhibitor, single point] | – |

| Structure (SMILES) | Potency | activity change, negative = growth inhibition |
| --- | --- | --- |
| C[C@]12CCC3C(CC[C@H]4C[C@@H](O)CC[C@]34C)C1C[C@@H](Br)[C@@H]2O (some centres undefined) | inactive | – |
| Fc1ccc(CNCCc2ccc3c(c2)OCO3)cc1 | inconclusive: 25.9 µM [inhibitor, partial curve, poor fit] | – |
| COC(=O)[C@@H]1N=C(c2ccc(OC)cc2)O[C@]12C(=O)N(C)c1cccc(Cl)c12 | inactive | – |
| Clc1ccc(C(Cn2ccnc2)OCc2csc3c(Cl)cccc23)c(Cl)c1 (centres undefined) | active: 6.4 µM and active: 13 µM | – |
| COc1ccc(C(=O)C2CCCN(Cc3ccsc3)C2)cc1OC (centres undefined) | inactive | – |
| C[C@]12CC[C@@H]3c4ccc(O)c(O)c4CC[C@H]3[C@@H]1CC[C@@H]2O | active: 13 µM | – |
| O=C(Nc1ccccc1)C1=C[C@H](c2ccccc2)C[C@H](OCCCCO)O1 | inconclusive: 18.4 µM [inhibitor, single point] | – |
| CCCCCCNc1nc(OC)nc(N2CC3CC(C2)c2cccc(=O)n2C3)n1 (centres undefined) | inconclusive: 23.1 µM [inhibitor, single point] | – |
| O=C(O)[C@H]1[C@H]2CN[C@H](C(=O)O)[C@H]21 | inactive | – |
| COc1ccc(C(=O)c2c(C)n(CCN3CCOCC3)c3ccccc23)cc1 | active: 23.7 µM | – |
| CC[C@H]1CN2CCC1C[C@@H]2[C@H](O)c1ccnc2ccc(OC)cc12 (some centres undefined) | inconclusive: 25.9 µM [inhibitor, single point] | – |
| COC(=O)C1=C(c2ccc(OC)c(OC)c2)C[C@@H]2CC[C@H]1N2C(=O)N1CCOCC1 | inconclusive: 29.1 µM [inhibitor, single point] | – |
| CNC(=O)OCC[N+](C)(C)C | inactive | – |
| CN1C(=O)[C@@H](NC(=O)c2cc3ccccc3[nH]2)N=C(c2ccccc2)c2ccccc21 | inconclusive: 23.7 µM [inhibitor, partial curve, poor fit] | – |
| O=C1NC(=O)N(Cc2ccco2)C(=O)/C1=C/C=C/c1ccco1 | active: 9.2 µM | – |
| O=C(O)CSC(=S)N1CC2CC(C1)c1cccc(=O)n1C2 (centres undefined) | inconclusive: 20.6 µM [inhibitor, single point] | – |
| C[C@]12CCC3C(CC[C@H]4C[C@@H](O)CC[C@]34C)C1=CC[C@@H]2O (some centres undefined) | inconclusive: 29.1 µM [inhibitor, single point] | – |
| c1ccc2c[n+](CCCCCCCCCC[n+]3ccc4ccccc4c3)ccc2c1 | active: 8.33 µM | – |
| COc1cccc(NC(=O)[C@@H](NC(=O)N2C[C@H]3C[C@@H](C2)c2cccc(=O)n2C3)C(C)C)c1 | inactive | – |
| CCNC(=O)[C@@H]1O[C@@H](n2cnc3c(N)ncnc32)[C@H](O)[C@H]1O | inconclusive: 15 µM [inhibitor, partial curve, poor fit] | – |
| O=C(CSc1oc(-c2ccccc2)nc1S(=O)(=O)c1ccc(Cl)cc1)Nc1ccc(F)cc1 | inconclusive: 18.4 µM [inhibitor, single point] | – |
| C/C=C1/CN2CC[C@]34C(=C(C=O)[C@H]1C[C@@H]23)Nc1ccccc14 | inconclusive: 29.9 µM [inhibitor, partial curve, poor fit] | – |
| CCOc1ccc(S(=O)(=O)N(C)c2ccc(OCC(=O)N3c4ccc(C)cc4C4CN(C)CCC43)cc2)cc1 (centres undefined) | inconclusive: 23.1 µM [inhibitor, single point] | – |

From PubChem BioAssay AID686978 (National Center for Advancing Translational Sciences (NCATS), 2013)
